# Out of some 150,000 compounds screened, about 540 (0.36%) showed an effect of 50% or more. This is one part of the list.
# Test system: Plasmodium falciparum
# Assay: Primary screen in NF54 nanoGlo assay, in single point, at 2uM, 72h; a lower Z score goes with more inhibition
# Format: functional, Erythrocyte
# Details: timepoint 72 hour
SMILES,% Inhibition [%],Z score
c1cc(Cc2noc(C3CC34CCOC4)n2)no1 (stereo not drawn),0,0.04
Cn1cc([C@H](C(=O)Nc2ccc3oc(C4CC4)nc3c2)N2CCOCC2)cn1,-8,1.24
O=C(NCC1CS(=O)(=O)c2ccccc21)NC1C2Cc3cc(F)ccc3C21 (stereo not drawn),-2,0.24
O=C(O)C(CNC(=O)C1CC=CCC1)CC1CC1 (stereo not drawn),13,-1.56
Cc1nc2n(n1)CC(NC(c1ccccc1)c1ccc(F)cn1)CC2 (stereo not drawn),-4,0.53
Cn1nc(-c2cccnc2)c2c1NC(=O)C[C@@H]2Cc1ccccc1,-6,1.23
O=C(Cn1cnc2c(c1=O)CCC2)Nc1cccc(Cl)c1Cl,-4,0.62
O=c1c2ccncc2ncn1[C@@H]1COC2(CCCCC2)C1,-3,0.61
CC(C)Cc1cc(C(=O)N2CCS(=O)(=O)CC2)on1,-16,1.49
Cc1occc1-c1nnc(NCc2cccc3c2OCO3)o1,-9,1.19
CS(=O)(=O)N(CCN1CCOCC1)[C@H]1CCCN(C(=O)c2cccc3[nH]ccc23)C1,-4,0.81
Cn1cc(C2(c3cn(C)c4ccccc34)CCN(C(=O)[C@H]3CC(=O)N(c4ccccc4)C3)CC2)c2ccccc21,-1,0.16
CN1C[C@@H](C(=O)Nc2scnc2-c2ccccc2)Cc2ccccc21,6,-1.04
CCCCC(=O)N[C@@H](C)c1nnc(C)s1,-4,0.37
Cc1ccnc(-n2nccc2NC(=O)NC[C@H]2CCC(C)(C)O2)c1,-16,2.18
Cc1cc([C@H]2c3nc[nH]c3CCN2CCOCc2ccccc2)on1,-7,0.83
O=C(NCc1ccc(-c2ccoc2)cc1)C1CCOCC1,-6,0.67
CC(C)C[C@]1(CO)CCCN1C(=O)NCCc1cccnc1,-18,2.48
CN1CCc2ccc(S(=O)(=O)NCc3nnc(C4CC4)o3)cc21,-10,1.52
CCC1CCN(C(=O)c2ccn3nccc3n2)CC1,21,-2.48
Cc1c(C(=O)O)nn(-c2ccc(F)cc2)c1Oc1ccc(NC(=O)CC(C)C)cc1S(=O)(=O)NC(C)C,-5,0.48

SMILES,% Inhibition [%],Z score
CCCN(Cc1cn2c(C)cc(C)nc2n1)CC(F)(F)F,-5,0.65
COC1(CC(=O)Nc2ccncc2C#N)CCC1,6,-0.71
COc1cc(CN2CCC[C@H](NC(=O)OC(C)(C)C)C2)sn1,-3,0.4
CCn1nccc1C(=O)Nc1ccccc1Oc1ccccc1,-16,2.77
O=C(NCc1cccs1)N1CC[C@H](Oc2cnsn2)C1,-8,1.55
COCCn1nnnc1[C@]1(N2CCOCC2)CCCN(C(=O)c2ccc3[nH]ccc3c2)C1,-4,0.63
COc1nc2c(c(C)nn2-c2ccc(C)cc2)c(C)c1CCC(=O)NCc1ccc(F)cc1,-8,1.23
CN(C)C1=NC2(CCN(Cc3ccc([C@@H]4CCCO4)s3)CC2)C(=O)N1,-10,1.25
Cc1ccc(Br)c(CNC(=O)NCc2cn(C)cn2)c1,-14,2.68
O=c1c2c(nc(NCCO)n1C1CCCCC1)-c1ccccc1CC21CCCCC1,-20,2.55
CC(=O)c1ccc(S(=O)(=O)N2CCOc3ccc(COCc4ccc(F)cc4)cc3C2)cc1,4,-0.6
Cn1nccc1-c1cn(CC(=O)Nc2ccc3c(c2)CCC3)nn1,0,-0.04
Cc1cc(C(=O)Nc2nnc(-c3csc(C)n3)o2)no1,-16,2.4
CC(=O)c1cc(CN2CCC3(CC2)CN(CCC(C)C)C(=O)O3)n(C)c1,4,-0.38
C=CCN(c1ccccc1)S(=O)(=O)C[C@H](C)OC,-9,1.73
CC(=O)c1sc(-c2ccoc2)nc1C,-9,1.78
c1ccc(NC(Nc2nnn[nH]2)=C(c2ccccc2)c2ccccc2)cc1,38,-4.88
CC(C(=O)NC[C@H]1CCc2ccccc2O1)n1ccnc1 (stereo partly drawn),-5,0.72
O=C1Nc2ccccc2Oc2ccc(NS(=O)(=O)c3ccc(F)c(Cl)c3)cc21,-13,1.44
O=C(N[C@H]1CC(=O)N(c2c(F)cccc2F)C1)c1cc[nH]c(=O)c1,3,-0.55
CC[C@@H]1C[C@H]1NC(=O)NCc1cc(Cl)cc(S(=O)(=O)CC)c1,-6,0.8

SMILES,% Inhibition [%],Z score
Cc1occc1C(=O)NCc1cccnc1Oc1ccc(F)c(F)c1,-3,0.58
O=C1CC[C@H](CC(=O)N2CCCn3c(cc4ccccc43)C2)CN1,-8,0.83
CCc1nnc(NC(=O)c2sc(N(C)C)nc2C)s1,-13,1.3
O=S(=O)(Cc1ccccc1)NC[C@H]1CCCO1,-8,1.11
O=C(c1ccc(C(F)(F)F)cc1)N1C[C@H](COc2ccncc2)C2(CCOCC2)C1,10,-1.35
O=C(NCC1CS(=O)(=O)CCO1)C(c1ccccc1)C1CC1 (stereo not drawn),-3,0.23
C[C@H]1C(=O)Nc2c(Cl)cc(Cl)cc2C(=O)N1C,7,-0.91
CC(C)c1cc(C(=O)N[C@@H](C)c2nc3c(s2)CCCC3)on1,-8,1.37
CC(C)c1nc(NC(=O)COc2cccc3c2ccn3C(C)C)n[nH]1,-1,0.08
O=C1NCCCc2[nH]c(-c3cc(-c4ccccn4)no3)nc21,-10,1.91
COc1ccc(-c2nc3c([nH]2)CCN(c2ccc(C)nn2)C3)cn1,0,-0.05
COc1ccc(CNC(=O)c2cc3c(n2C)CCN(Cc2ccc(F)cc2)C3)cc1,6,-0.68
Cn1ccc(NC(=O)C(=O)N2CC[C@H](N3CCCCC3)C2)n1,-10,0.93
Cc1ccc(CN2CC(O)C(O)C2)c(Br)c1 (stereo not drawn),4,-0.67
O=C1N[C@@H]2CCN(C(=O)c3cccs3)[C@@H]2C(=O)N1c1ccc(Oc2ccccc2)cc1,1,-0.24
CCc1ccc2nc(C)cc(C(=O)N3CCC(Nc4ncccn4)CC3)c2c1,-8,1.37
OC1CCN(c2nncc3ccccc23)CC1,7,-0.98
C=CCN(CC(=O)N1CCCN(c2ccc(-c3ccccc3)nn2)CC1)C(=O)c1ccc(Cl)cc1,-8,1.23
Cc1cc(CCC(=O)N2CC(n3nccn3)C2)ccc1F,2,-0.27
CCOc1cccc(-c2noc(Cn3ccn4nc(-c5ccc(F)cc5)c(CO)c4c3=O)n2)c1,-14,1.61
Cc1cc(C(=O)N2C[C@@H]3c4ccccc4OC[C@]3(CO)C2)nc2[nH][nH]c(=O)c12,0,-0.03

SMILES,% Inhibition [%],Z score
OCc1cccc(N(Cc2ccon2)C2Cc3ccccc3C2)c1,-13,2.1
O=C(CCc1cccnc1)N1CCN(S(=O)(=O)c2ccc3c(c2)CCCC3)CC1,-3,0.32
COCCCn1c(NS(=O)(=O)c2ccccc2)c(S(=O)(=O)c2ccc(C)cc2)c2nc3ccccc3nc21,43,-9.12
CC1CCN(CCCC(=O)c2ccc(F)cc2)CC1 [MELPERONE],-6,0.66
CC(C)Cc1nc(N2CCCN(C(=O)C3CCCC3)CC2)c2c(-c3cccc(Oc4ccccc4)c3)noc2n1,-7,1.3
COc1ccc(CCC(C)NC2CCCc3ccccc32)cc1 (stereo not drawn),-4,0.77
CCN(CC)CC1(NC(=O)c2ccc(Cl)cn2)CC1,-8,1.08
Cc1cc(C)n(-c2oc(-c3cccnc3)nc2C#N)n1,3,-0.43
COCCN(CCOc1ccccc1F)C(=O)[C@@H]1CCCCN1C,-11,2.01
O=C(C1CCN(Cc2nnc(-c3ccco3)o2)CC1)N1CCCC1,-14,2.64
COCCN(CC(C)C)c1cnccn1,-1,0.1
c1cc2nnnn2nc1N1CCC2(CC1)OCCO2,1,-0.15
COc1cc(NC(=O)c2ccco2)c2cccnc2c1,1,-0.11
COc1ccc(Oc2cnn(-c3ccc(F)cc3)c(=O)c2Nc2ccc(C(=O)NCc3ccco3)cc2)cc1,-1,0.13
CCn1c(C)nnc1CNC1CCCC1Cc1ccccc1 (stereo not drawn),-10,1.03
O=C(c1ccn2c(-c3ccc(F)cc3)nnc2c1)N1CCN(c2ccccc2F)CC1,-2,0.34
Cc1noc([C@H]2OCC[C@H]2Nc2ncnc3ccc(C(C)C)cc23)n1,-10,1.9
Cc1cc(NC(=O)Nc2cc(-c3cccnc3)n[nH]2)nn1C(C)C,33,-3.39
Cc1ccc(-n2nc3c(=O)n([C@@H](C)C(=O)NCc4ccccc4C)nc(C)c3c2C)cc1,0,-0.03
O=C(CCc1ccc(=O)[nH]c1)NC1(c2ccc(Cl)cc2)CCCC1,-7,0.66
C=CCCC(=O)N1CCCC[C@H](c2ccc(Cl)cc2)C1,29,-3.69

# Source: ChEMBL document CHEMBL4888484, “Replenishing the malaria drug discovery pipeline: Screening and hit evaluation of the MMV Hit Generation Library 1 (HGL1) against asexual blood stage Plasmodium falciparum ,using a nano luciferase reporter read-out” (2022)
